Results published in the supplement of paper PMC4604168 (melanoma cell lines).
The other results are listed elsewhere or left out. Many values rest on one well or one pass, so single values are uncertain.

Experiments:
Test in all cases: cell count relative to DMSO control; melanoma cells; higher = more viable cells
Details in all cases: library dose: standard library concentration; 72 h; first compound 2 µM
G361 = tested on: G361
IPC-298 = tested on: IPC-298
IST-MEL1 = tested on: IST-MEL1
LB2518-MEL = tested on: LB2518-MEL
LOXIMVI = tested on: LOXIMVI
MEL-HO = tested on: MEL-HO
MZ2-MEL = tested on: MZ2-MEL
MeWo = tested on: MeWo
RPMI7951 = tested on: RPMI7951
RVH-421 = tested on: RVH-421
SkMel28 = tested on: SkMel28
SkMel2 = tested on: SkMel2
SkMel30 = tested on: SkMel30
SkMel5 = tested on: SkMel5
UACC257 = tested on: UACC257
UACC62 = tested on: UACC62
WM115 = tested on: WM115
WM1716 = tested on: WM1716
WM3526 = tested on: WM3526
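Also: cells treated in 1,536-well plates, then fixed and DAPI-stained, with nuclei counted from automated high-throughput microscope images.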

C[C@@H](N)c1ccc(C(=O)Nc2ccnc3[nH]ccc23)cc1 + COc1ccc2c(c1)CCC1C2CCC2(C)C(NCCCCCCN3C(=O)C=CC3=O)CCC12 [U73122] (partner dose 2 µM)
cell count (G361): 57.4% | cell count (IPC-298): 90% | cell count (IST-MEL1): 78.5% | cell count (LB2518-MEL): 63.1% | cell count (LOXIMVI): 53.3% | cell count (MEL-HO): 75.7% | cell count (MZ2-MEL): 64.6% | cell count (MeWo): 30.1% | cell count (RPMI7951): 25% | cell count (RVH-421): 47.7% | cell count (SkMel28): 95.3% | cell count (SkMel2): 92.1% | cell count (SkMel30): 90.2% | cell count (SkMel5): 42.7% | cell count (UACC257): 69.5% | cell count (UACC62): 57.8% | cell count (WM115): 79.4% | cell count (WM1716): 46.9% | cell count (WM3526): 79.7%

CCCCCCCCCCCCCCCCCCOP(=O)([O-])OC1CC[N+](C)(C)CC1 [Perifosine] + COc1cc2ncnc(Nc3ccc(Oc4ccccc4)cc3)c2cc1OC [SrcI1] (partner dose 10 µM)
cell count (G361): 63.1% | cell count (IPC-298): 76.8% | cell count (IST-MEL1): 83.3% | cell count (LB2518-MEL): 139% | cell count (LOXIMVI): 65.3% | cell count (MEL-HO): 82.9% | cell count (MZ2-MEL): 75.1% | cell count (MeWo): 62.7% | cell count (RPMI7951): 17.6% | cell count (RVH-421): 92.9% | cell count (SkMel28): 77% | cell count (SkMel2): 93.9% | cell count (SkMel30): 89.8% | cell count (SkMel5): 55.6% | cell count (UACC257): 85.7% | cell count (UACC62): 56.5% | cell count (WM115): 83.8% | cell count (WM1716): 77.5% | cell count (WM3526): 62.8%

C[C@@H](N)c1ccc(C(=O)Nc2ccnc3[nH]ccc23)cc1 + COc1cc(N2CCC(N3CCN(C)CC3)CC2)ccc1Nc1ncc(Cl)c(Nc2ccccc2S(=O)(=O)C(C)C)n1 [NVP-TAE684] (partner dose 0.4 µM)
cell count (G361): 79.6% | cell count (IPC-298): 100% | cell count (IST-MEL1): 93.9% | cell count (LB2518-MEL): 110% | cell count (LOXIMVI): 96.5% | cell count (MEL-HO): 88.3% | cell count (MZ2-MEL): 68.2% | cell count (MeWo): 41.9% | cell count (RPMI7951): 30.5% | cell count (RVH-421): 59.9% | cell count (SkMel28): 73.2% | cell count (SkMel2): 79.7% | cell count (SkMel30): 98% | cell count (SkMel5): 42.3% | cell count (UACC257): 64% | cell count (UACC62): 74.7% | cell count (WM115): 86.1% | cell count (WM1716): 56.6% | cell count (WM3526): 76.1%

C[C@@H](N)c1ccc(C(=O)Nc2ccnc3[nH]ccc23)cc1 + COc1cc2ncnc(Nc3ccc(Oc4ccccc4)cc3)c2cc1OC [SrcI1] (partner dose 10 µM)
cell count (G361): 49.3% | cell count (IPC-298): 66.3% | cell count (IST-MEL1): 76.2% | cell count (LB2518-MEL): 130% | cell count (LOXIMVI): 80.1% | cell count (MEL-HO): 54.8% | cell count (MZ2-MEL): 46.3% | cell count (MeWo): 61% | cell count (RPMI7951): 28.9% | cell count (RVH-421): 22.3% | cell count (SkMel28): 72.8% | cell count (SkMel2): 81.2% | cell count (SkMel30): 67.1% | cell count (SkMel5): 40.1% | cell count (UACC257): 46.3% | cell count (UACC62): 44.9% | cell count (WM115): 76.2% | cell count (WM1716): 43.7% | cell count (WM3526): 53.7%

Cn1sc(=O)n(Cc2ccccc2)c1=O + N#Cc1c(O)c2c(-c3ccc(-c4ccccc4O)cc3)csc2[nH]c1=O [A769662] (partner dose 10 µM)
cell count (G361): 86.7% | cell count (IPC-298): 87.9% | cell count (IST-MEL1): 94.2% | cell count (LB2518-MEL): 96.3% | cell count (LOXIMVI): 69.8% | cell count (MEL-HO): 86.9% | cell count (MZ2-MEL): 72.8% | cell count (MeWo): 86% | cell count (RPMI7951): 82.5% | cell count (RVH-421): 240% | cell count (SkMel28): 88.6% | cell count (SkMel2): 120% | cell count (SkMel30): 98.4% | cell count (SkMel5): 82.2% | cell count (UACC257): 101% | cell count (UACC62): 90.7% | cell count (WM115): 79% | cell count (WM1716): 105% | cell count (WM3526): 88.4%

C[C@@H](N)c1ccc(C(=O)Nc2ccnc3[nH]ccc23)cc1 + O=C(Nc1ccccc1)c1cc([N+](=O)[O-])ccc1Cl [GW9662] (partner dose 10 µM)
cell count (G361): 76.6% | cell count (IPC-298): 116% | cell count (IST-MEL1): 118% | cell count (LB2518-MEL): 126% | cell count (LOXIMVI): 77.8% | cell count (MEL-HO): 88.8% | cell count (MZ2-MEL): 63.7% | cell count (MeWo): 63.3% | cell count (RPMI7951): 71.8% | cell count (RVH-421): 78.9% | cell count (SkMel28): 95.4% | cell count (SkMel2): 134% | cell count (SkMel30): 94.9% | cell count (SkMel5): 96% | cell count (UACC257): 70.4% | cell count (UACC62): 75.6% | cell count (WM115): 89.7% | cell count (WM1716): 73.8% | cell count (WM3526): 123%

CCCCCCCCCCCCCCCCCCOP(=O)([O-])OC1CC[N+](C)(C)CC1 [Perifosine] + O=C1NC(=O)/C(=C/c2ccc(-c3ccc(F)cc3O)o2)S1 [AS252424] (partner dose 5 µM)
cell count (G361): 85.3% | cell count (IPC-298): 81.8% | cell count (IST-MEL1): 102% | cell count (LB2518-MEL): 95.6% | cell count (LOXIMVI): 110% | cell count (MEL-HO): 83.9% | cell count (MZ2-MEL): 80.5% | cell count (MeWo): 96.7% | cell count (RPMI7951): 59.8% | cell count (RVH-421): 121% | cell count (SkMel28): 100% | cell count (SkMel2): 84.9% | cell count (SkMel30): 90.9% | cell count (SkMel5): 90.7% | cell count (UACC257): 96.8% | cell count (UACC62): 79.1% | cell count (WM115): 92.4% | cell count (WM1716): 96.8% | cell count (WM3526): 70.9%

C[C@@H](N)c1ccc(C(=O)Nc2ccnc3[nH]ccc23)cc1 + N#Cc1c(O)c2c(-c3ccc(-c4ccccc4O)cc3)csc2[nH]c1=O [A769662] (partner dose 10 µM)
cell count (G361): 87.5% | cell count (IPC-298): 92.5% | cell count (IST-MEL1): 74.5% | cell count (LB2518-MEL): 111% | cell count (LOXIMVI): 93.6% | cell count (MEL-HO): 73% | cell count (MZ2-MEL): 61% | cell count (MeWo): 60.1% | cell count (RPMI7951): 56.7% | cell count (RVH-421): 59.4% | cell count (SkMel28): 76.2% | cell count (SkMel2): 101% | cell count (SkMel30): 76.1% | cell count (SkMel5): 48.1% | cell count (UACC257): 65.5% | cell count (UACC62): 76.2% | cell count (WM115): 103% | cell count (WM1716): 31.8% | cell count (WM3526): 78.1%

Cn1sc(=O)n(Cc2ccccc2)c1=O + O=S(=O)(c1ccccc1)N(CC(F)(F)F)c1ccc(C(O)(C(F)(F)F)C(F)(F)F)cc1 [T0901317] (partner dose 7 µM)
cell count (G361): 91% | cell count (IPC-298): 88.4% | cell count (IST-MEL1): 113% | cell count (LB2518-MEL): 87.7% | cell count (LOXIMVI): 114% | cell count (MEL-HO): 117% | cell count (MZ2-MEL): 103% | cell count (MeWo): 94.6% | cell count (RPMI7951): 105% | cell count (RVH-421): 127% | cell count (SkMel28): 74.1% | cell count (SkMel2): 93.8% | cell count (SkMel30): 91.6% | cell count (SkMel5): 98.2% | cell count (UACC257): 94.2% | cell count (UACC62): 67.6% | cell count (WM115): 99.9% | cell count (WM1716): 140% | cell count (WM3526): 97%

C[C@@H](N)c1ccc(C(=O)Nc2ccnc3[nH]ccc23)cc1 + Cc1cc([N+](=O)[O-])ccc1NS(=O)(=O)c1cc(Cl)ccc1Cl [FH535] (partner dose 5 µM)
cell count (G361): 46.1% | cell count (IPC-298): 51.9% | cell count (IST-MEL1): 54.7% | cell count (LB2518-MEL): 73.2% | cell count (LOXIMVI): 65.1% | cell count (MEL-HO): 42.3% | cell count (MZ2-MEL): 35.1% | cell count (MeWo): 63.3% | cell count (RPMI7951): 62.8% | cell count (RVH-421): 42.3% | cell count (SkMel28): 72.2% | cell count (SkMel2): 72.9% | cell count (SkMel30): 76% | cell count (SkMel5): 50.7% | cell count (UACC257): 48.5% | cell count (UACC62): 85.9% | cell count (WM115): 78% | cell count (WM1716): 46.9% | cell count (WM3526): 90.4%
